The values below come from the RNAGym collection of RNA variant scans (doi:10.1073/pnas.2313332121).

This sample is rich in variants without activity.

B1: TPR 5TU (parent)
chain: GGAUCUUCUCGAUCUAACAAAAAAGACAAAUCUGCCACAAAGCUUGAGAGCAUCUUCGGAUGCAGAGGCGGCAGCCUUCGGUGGCGCGAUAGCGCCAACGUUCUCAACUAUGACACGCAAAACGCGUGCUCCGUUGAAUGGAGUUUAUCAUG

This series covers variants of B1. In words: polymerase ribozyme fitness, log enrichment relative to wild type (log ratio); higher = more active; in vitro selection for triplet polymerase activity. The essentials:
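Fitness measures genotype enrichment against wild-type enrichment on a logarithmic scale, with inverse-variance-weighted averaging of replicates. The logarithm is base 2, and genotypes were kept only with ≥10 input reads and ≥1 read per output in Illumina sequencing. The sequenced libraries came from one triplicate in vitro selection round, including frozen incubation at −7 °C, of PCR-built, transcribed mutant libraries of each subunit of a heterodimeric triplet polymerase ribozyme.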
For GGAUCUUCUCGAUCUAACAAGAAAGACAAAUCUGCCACAAAGCUUGAGAGCAACUUCGGUUGCAGAGGCGGCAGCCUUCGGUGGCGCGAUAGCGCUAAGGUUCUCAACUGUGACACGCAAAACGCGUGCUCCGUUGAAUGGAGUUUAUCAUG [A21G U53A A60U C96U C99G A110G], the “polymerase ribozyme fitness (log ratio)” value was at most -4.2.

Regarding GGAUCUUCUCGAUCUAACAAGAAAGACAAAUCUGCCACAAAGCUUGAGAGCAUCUUCGGAUGCAGAGGCGGCAGACUUCGGUGGCGCGAUAGCGUCAACGUUCUCAACUAUGACACGCAAAACGCGUGCUCCGUUGAAUUGAGUUUAUCAUG [A21G C75A C95U G140U], the “polymerase ribozyme fitness (log ratio)” value is at most -4.2. On to GGAUCUUCUCGAUCUAACAAGAAAGACAAAUCUGCCACAAAGCUUGAGACCAUCUUCGGAUGCAGAGGCGGCAGCCUUCGGUGGCGCGAUAGUGCCAACGUUCUCAACUAUGACACGUAAAACGCGUGCUCCGUUGAUUGGAGUAUAUCAUG [A21G G50C C93U C118U A138U U145A], for which the “polymerase ribozyme fitness (log ratio)” value was at most -4.2.

In the case of GGAUCUUCUCGAUCUAACAAGAAAGACAAAUCUGCCACAAAGCUUGAGAGCAUCUUCGGAUGCAGAGGCGACAGCCUUCGGUGGCGCGAUAGCGCCAACGUUCUCAACUAUGACACGCAAAACGCGUGCUCCGUUGAAUGGAGUUGAUCAUG [A21G G71A U146G], the “polymerase ribozyme fitness (log ratio)” value is at most -4.2. The value for GGAUCUUCUCGAUCUAACAAGAAAGACAAAUCUGCCACAAAGCUUGAGAGCAUCUUCGGAUGCAGAGACGGCAGCCUUCGGUGGCGCGAUAGCGCCAACGUUCUCAACUAUGACACGCAAAACGCGUGCUCCGUUGAAUGGAGUUUAUCAUG [A21G G68A] was -3.89; that for GGAUCUUCUCGAUCUAACAAGAAAGACAAAUCUGCCACAAAGCUUGAGAGCAUCAUCGGAUGCAGAGGCGGCAGCCUUCGGUGGCGCGAUAGCGCUAACGUUCUCAACUAUGACACACAAAACGCGUGCUCCGUUGAAUGGAGUUUAUCAUG [A21G U55A C96U G117A] was 0.86. As for GGAUCUUCUCGAUCUAACAAGAAAGACAAAUCUGCCACAAAGCUUGAGAGCAUCUUCGGAAGCAGAGGCGGCGGCCUUCGGUGGCGCCAUAGCGCCAACGUUCUCAACUAUGACACGCAAAACGCGUGCUCCGUAGAAUGGAGUUUAUCAUG [A21G U61A A73G G88C U135A], the “polymerase ribozyme fitness (log ratio)” value is at most -4.2. As to GGAUCUUCUCGAUCUAACAAGAAAGACAAAUCGGCCACAAAGCUUGAGAGCCUCUUCGGAUGCCGAGGCGGCAGGCUUCGGUGGCGCGAUAGGGCCAACGUUCUCAACUAUGACACGCAAAACGCGUGCUCCGUUGAAUGGAGUUUAUCAGG [A21G U33G A52C A64C C75G C93G U151G], the “polymerase ribozyme fitness (log ratio)” value is at most -4.2.

Turning to GGAUCUUCUCGAUCUAACAAGAAAGACAAAUCGGCCUCAAAGCUUGAGAGCAUCUUCGGAUGCAGAGGCGGCAGCCUUCGGUGGUGCGAUAGCGUCAACGUUCUCAACUAUGACACGCAAAACGCGUGCUCCGUUGAAUGCAGUUUAUCAUG [A21G U33G A37U C85U C95U G141C], the “polymerase ribozyme fitness (log ratio)” value was at most -4.2. For the variant GGAUCUUCUCGAUCUAACAAGAAAGACAAAUCUGCCACAAAGCUUGAGAGCAUCUUCGGAUGCAGAGGCUGCAGCCUUCAGUGGCGCGAUAGUGCCAACGUUCUCAACUAUGACACGCAAAACGCGUGCUCCGUUGAAUGGAGUUUAUCAUG [A21G G70U G80A C93U], the “polymerase ribozyme fitness (log ratio)” value was at most -4.2.

In the case of GGAUCUUCUCGAUCUAACAAGAAAGACAAAUCUGCCACAAAGCUUGAGAGCAUCAUAGGAUGCAGAGGCGGCAGCCUUCGGUGGCGCGAUAGAGCCAACGUUCUAAACUAUGACACGCAAAACGCGUGCUCCGUUGACUGGAGUUUAUCAUG [A21G U55A C57A C93A C105A A138C], the “polymerase ribozyme fitness (log ratio)” value is at most -4.2. For the variant GGAUCUUCUCGAUCUAACAAUAACGAAAAAUCUGCCACAAAGCUUGAGAGCAUCUUCGGAUGCAGAGGCGGCGGCCUUCCGUGGCGCGAAAGCGCCAACGUUCUCAACUAUGACACGCAAAACGCGUGCUCCGUUGAAUGGAGUUUAUCAUG [A21U A24C C27A A73G G80C U90A], the “polymerase ribozyme fitness (log ratio)” value was at most -4.2. The value for GGAUCUUCUCGAUCUAACAAUGAAGACAAAUCUGCCACAAAGCUUGAGAGCAUCUUCGGGUGCAGAGGCGGCAGCCUUCGGUGGCGCGAUAGCGCCAACGUUCUCAACUAUGACACGCAAAACGCGUGCUCGGUUGAAUGGAGCUUAUCAUG [A21U A22G A60G C132G U144C] was -4.13. As to GGAUCUUCUCGAUCUAACAAUCAAGACAAGUCUGCCACAAAGCUUGAGAGCAUCUUCGGAUGCAGAGGCGGCAGCCUUCGGUCGCGUGAUAGCGCCAACGUUCUCAACUAUGACACGCAAAACGCGUGCUCCGUUGAAUGGACUUUAUCAUG [A21U A22C A30G G83C C87U G143C], the “polymerase ribozyme fitness (log ratio)” value is at most -4.2. As for GGAUCUUCUCGAUCUAACAAGAAAGAGAAAUCCGCCACAAAGCUUGAGAGCAUCUUCCGAUGCAGAGGCGGCAGCCUUCGGUGGCGCGAUAGCGCUUACGUUCUCGACUAUGACACGCAAAACGCGUGCUCCGUUGAAUGUAGUUUAUCAUG [A21G C27G U33C G58C C96U A97U A106G G141U], the “polymerase ribozyme fitness (log ratio)” value is at most -4.2. Turning to GGAUCUUCUCGAUCUAACAAGAAAGACAAAUCGGCCACAAAGCUUGAGAGCCUCUUCGGAGGCGGAGGCGGCAGCCUGCGGUGGCGCGAUAGCGACAACGUUCUCGACUAUGACACGCAAAACGCGUGCUCCGUUGAAUGGGGUUUAUCAUG [A21G U33G A52C U61G A64G U78G C95A A106G A142G], the “polymerase ribozyme fitness (log ratio)” value is at most -4.2. As to GGAUCUUCUCGAUCUAACAAGAAAGACAAAUCUGCGACAAAGCUUGCGAGCAUCUUCGGAUGCAGAGGCGGCAGCCUUCGGUGGCGCGAUAGCGCCAACGUUCUCAACUAUGACACGCACAACGCGUGCUCCAUUGAAUGGAGUUUAUCAUG [A21G C36G A47C A120C G133A], the “polymerase ribozyme fitness (log ratio)” value was at most -4.2.

For the variant GGAUCUUCUCGAUCUAACAAGAAAGACAAAUCUGCCACAAAGCUUGAGAGCAUCUUCGGAUGCAGAGGCGGCAGCCUUCGUUGGCGCGAUAGCGAAAUCGUUCUCAACUAUGACACGCAAAACGCGUGCUCCGUUGAAUGGAGUAUAUCAUG [A21G G81U C95A C96A A98U U145A], the “polymerase ribozyme fitness (log ratio)” value was -1.34. Regarding GGAUCUUCUCGAUCUAACAAGAAAGACAAAUCUGCCACAAAGCUUGAGAGCAUCUUCGGAUGCAGAGCCGGCAGCCUUCGGUGGAGCGAUAACGCCAACGUUCUCAACUAUGACACGCAAAACGCGUUCUCCGUUGAAUGGAGUUUAUCAUG [A21G G68C C85A G92A G128U], the “polymerase ribozyme fitness (log ratio)” value is at most -4.2.
